From CN114685674A (RUIYANG SUZHOU BIOTECHNOLOGY LTD COMPANY, dated 2022) come the findings set out here.

In one assay the target is T1, PD-L1 (UniProt Q9NZQ7 fragment, limits assumed).
T1 construct: also called 分析物PD-L1
The assay can be described thus: SPR (Biacore 8K), sample captured on Protein A chip, PD-L1 as analyte, 25 °C.

The target of assay [1] is PD-L1 on GS-C2/PD-L1 cells (UniProt Q9NZQ7). The assay can be described thus: cell-based or functional assay.

PD-L1, sequence (Q9NZQ7 19-238 limits assumed): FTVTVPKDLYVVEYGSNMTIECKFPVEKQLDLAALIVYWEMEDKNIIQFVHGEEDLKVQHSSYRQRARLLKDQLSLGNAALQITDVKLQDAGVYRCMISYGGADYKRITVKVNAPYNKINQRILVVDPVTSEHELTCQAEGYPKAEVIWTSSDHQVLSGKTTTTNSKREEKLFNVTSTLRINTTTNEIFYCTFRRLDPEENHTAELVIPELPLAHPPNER

B1: 23-47 PD-L1/VEGFRI抗体融合蛋白 (other)
chain 1: EVQLVQSGAEVKKPGASVKVSCKASGYTFTKYIIHWVRQAPGQGLEWMGWFYPGSGNIRYNEKIKGRVTMTRDTSTSTVYMELSSLRSEDTAVYYCARHGELGGGYFFDYWGQGTTVTVSS[no letters for human IgG1 constant region]
chain 2: DIQLTQSPSFLSASVGDRVTITCRASSSVSNIHWYQQKPGKAPKPWIYATSNLASGVPSRFSGSGSGTEFTLTISSLQPEDFATYYCQQWSSNPLTFGQGTKLEIKRTVAAPSVFIFPPSDEQLKSGTASVVCLLNNFYPREAKVQWKVDNALQSGNSQESVTEQDSKDSTYSLSSTLTLSKADYEKHKVYACEVTHQGLSSPVTKSFNRGECGGGGSGGGGSGGGGSGRPFVEMYSEIPEIIHMTEGRELVIPCRVTSPNITVTLKKFPLDTLIPDGKRIIWDSRKGFIISNATYKEIGLLTCEATVNGHLYKTNYLTHRQTNTI
Turning to B1, in the assay with PD-L1, the affinity, expressed as Kd, was 0.365 nM; the koff is 0.000192 s⁻¹; the kon worked out at 525000 M⁻¹ s⁻¹. The “PD1/PD-L1结合阻断 EC50 (luciferase reporter)” value in assay [1] stood at 12.2 nM.

B2: 46-24 PD-L1/VEGFRI抗体融合蛋白 (other)
chain 1: EVQLVQSGAEVKKPGASVKVSCKASGYTFTKYIIHWVRQAPGQGLEWMGWFYPGSGNIRYNEKIKGRVTMTRDTSTSTVYMELSSLRSEDTAVYYCARHGELGGGYFFDYWGQGTTVTVSS[no letters for human IgG1 constant region]GGGGSGGGGSGGGGSGRPFVEMYSEIPEIIHMTEGRELVIPCRVTSPNITVTLKKFPLDTLIPDGKRIIWDSRKGFIISNATYKEIGLLTCEATVNGHLYKTNYLTHRQTNTI
chain 2: DIQLTQSPSFLSASVGDRVTITCRASSSVSNIHWYQQKPGKAPKPWIYATSNLASGVPSRFSGSGSGTEFTLTISSLQPEDFATYYCQQWSSNPLTFGQGTKLEIKRTVAAPSVFIFPPSDEQLKSGTASVVCLLNNFYPREAKVQWKVDNALQSGNSQESVTEQDSKDSTYSLSSTLTLSKADYEKHKVYACEVTHQGLSSPVTKSFNRGEC
B2 returned an equilibrium dissociation constant (Kd) with PD-L1 of 0.329 nM. Besides, the “PD1/PD-L1结合阻断 EC50 (luciferase reporter)” value in assay [1] amounted to 14.4 nM.
